# According to US10300036B2, “Compositions and methods for treating and preventing lung injury” (ARIZONA BOARD OF REGENTS on behalf of THE UNIVERSITY OF …, priority 2015, dated 2019):
# What was measured:
# NRF2 [1] = test: NRF2 protein half-life (cycloheximide chase, immunoblot) in H1299 cells; type: cell-based, human; conditions: H1299, bixin 4 h then cycloheximide; untreated cells 19.4 min
# NRF2 signaling pathway [2] = test: Pulmonary NRF2 signaling pathway activation after IP injection (IHC, immunoblot, RT-PCR of lung tissue); conditions: Nrf2+/+ mice
# NRF2 signaling pathway [3] = test: Real-time RT-PCR of NRF2 pathway mRNA in H1299 cells; type: cell-based, human; conditions: H1299, 40 μM, 4 or 16 h
# [4] = system: normal human bronchial epithelial cells (NHBE); test: MTT cell viability, NHBE; type: cell-based; conditions: 48 h, doses 0.625-160 μM
# Protocol: (§1) Bixin toxicity was measured by functional impairment of the mitochondria using 3-(4,5-dimethylthiazol-2-yl)-2,5-diphenyltetrazolium bromide (MTT) (Sigma). Cells (1×10^4) were seeded in a 96-well plate; 24 h later the cells were treated with the indicated doses of bixin for 48 h. 20 μL of 2 mg/mL MTT were directly added to the cells which were then incubated at 37° C. for 2 h. 100 μl of isopropanol/HCl were added to each well and the plate was shaken at room temperature (RT). Absorbance was measured at 570 nm using the Synergy 2 Multi-Mode Microplate Reader (Biotek).
# (§2) Based on the chemical structure of bixin (FIG. 1a), it was investigated if bixin was able to induce the Nrf2 signaling pathway in lung cells. An MTT assay was first employed to determine bixin cytotoxicity in cells treated for 48 h with doses ranging from 0.625-160 μM.
# H1299 cells = test: MTT cell viability, H1299; type: cell-based, human; conditions: H1299, 48 h, doses 0.625-160 μM
# Protocol: as §1, §2
# [5] = system: immortalized normal bronchial epithelial cells (HBE); test: MTT cell viability, HBE; type: cell-based; conditions: 48 h, doses 0.625-160 μM
# Protocol: as §1, §2
# [6] = system: ventilation-induced lung injury (VILI); conditions: ventilation treatment and/or bixin injections (200 mg/kg IP)
# NRF2 signaling pathway [7] = test: Immunoblot of NRF2 signaling pathway proteins in H1299 cells; type: cell-based, human
# [8] = system: immortalized normal bronchial epithelial cells (BEAS-2B); test: MTT cell viability, BEAS-2B; type: cell-based; conditions: 48 h, doses 0.625-160 μM
# Protocol: as §1, §2
# [9] = MTT cell viability, HMVEC-L; type: cell-based; conditions: human, HMVEC-L normal lung microvascular endothelial cells, highest dose tested (range 0.625-160 μM), read-out: decrease in viability (MTT assay)
# Protocol: as §1, §2
# NRF2 [10] = test: Indirect immunofluorescence of NRF2 in H1299 cells; type: cell-based, human; conditions: H1299, 40 μM, indicated time points
# Protocol: H1299 cells were seeded on glass cover slips, 24 h were treated with bixin (40 μM) for the indicated time points. Cells were fixed with chilled methanol and incubated with anti-NRF2 antibody, then with an Alexa Fluor 488-conjugated secondary antibody. Nuclei were counterstained with DAPI. Images were obtained using a Zeiss Observer.Z1 microscope with the Slidebook 5.0 software (Intelligent Imaging Innovations).
structure (smiles),measurement,setting,value
"COC(=O)/C=C/C(C)=C\C=C\C(C)=C\C=C\C=C(C)\C=C\C=C(C)\C=C\C(=O)O [bixin, Bixin]",half-life of NRF2 after bixin treatment,NRF2 [1],28.9 min
same,NRF2 pathway in lungs (IHC),NRF2 signaling pathway [2]; bixin 200 mg/kg IP 72 h before 4 h ventilation,also activated
same,KEAP1 in lung total protein (immunoblot),NRF2 signaling pathway [2]; bixin alone or combined with ventilation,without affecting KEAP1
same,mRNA levels of NRF2 and KEAP1,NRF2 signaling pathway [3],did not affect
same,mRNA levels of both HMOXJ and GCLM,NRF2 signaling pathway [3],increase significantly
same,cytotoxicity (MTT assay),[4],no cytotoxicity was observed at any of the doses tested
same,cytotoxicity (MTT assay),H1299 cells,no cytoxicity was found at any of the doses tested
same,cytotoxicity (MTT assay),[5],no cytoxicity was found at any of the doses tested
same,survival,[6],All mice survived
same,KEAP1 protein levels over time,"NRF2 signaling pathway [7]; H1299, 40 μM, time course",No change was observed
same,earliest time of significant induction of NRF2 protein levels,"NRF2 signaling pathway [7]; H1299, 40 μM, time course",2 h
same,time of highest NRF2 protein levels,"NRF2 signaling pathway [7]; H1299, 40 μM, time course",2 to 4 h
same,time of return of NRF2 protein levels to basal levels,"NRF2 signaling pathway [7]; H1299, 40 μM, time course",≤ 24 h
same,GCLM protein levels over time,"NRF2 signaling pathway [7]; H1299, 40 μM, time course up to 48 h","increased at 8 h and peaked between 12 and 24 h, with persistent elevation up to 48 h"
same,KEAP1 expression levels,"NRF2 signaling pathway [7]; H1299, 10, 20 and 40 μM, 4 h and 16 h",no effects were observed
same,induction of NRF2 protein levels,"NRF2 signaling pathway [7]; H1299, 10, 20 and 40 μM, 4 h treatment",dose-response effect
same,induction of downstream targets HO-1 and GCLM protein levels,"NRF2 signaling pathway [7]; H1299, 10, 20 and 40 μM, 16 h treatment",dose-response effect
same,cytotoxicity (MTT assay),[8],no cytoxicity was found at any of the doses tested
same,"cytotoxicity at 48 h, 160 μM",[9],20%
same,cytoplasmic and nuclear accumulation of NRF2,NRF2 [10],increased cytoplasmic and nuclear accumulation of NRF2
